# PubChem BioAssay AID504845 (National Center for Advancing Translational Sciences (NCATS), 2011)
# Screen size: about 390,000 compounds; about 150 (0.038%) were called active. The shares of active, inactive and inconclusive entries below differ from those in the screen. Calls follow the shape of the dose curve; as a rule, active = well fitted inhibition curve with a large enough effect; inconclusive = small, poorly fitted or top-dose-only effect; inactive = no such curve, though single readings can be large or run the other way. Where the call is inconclusive, the potency comes from a doubtful curve fit.
# Molecular target: Regulator of G-protein signaling 4 (Homo sapiens) (UniProt P49798)
# Assay: Inhibitors of Regulator of G Protein Signaling (RGS) 4: qHTS; also: nearly all actives have a fitted effect of over 75% in size
# Details: Transcreener GDP fluorescence polarization, RGS4-accelerated GTP hydrolysis; series mostly up to 114 µM; activity change, negative = inhibition: at the top concentration
# Outline: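 MLSMR compounds (23 nl, pin-transferred) preincubated 10 min at room temperature with a 500nM (2x) first reagent, then RGS4 at 900nM (2x) plus Transcreener GDP mix added; fluorescence polarization (620/688 nm) read before and after 90 min at 30 °C.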
# % is scaled to controls: 0 for no effect and ±100 for the full control effect; potency is read from the fitted curve at half-maximal effect; tags tell the direction and shape of the fitted curve.
# Chain of UniProt P49798 (P49798 whole entry, looked up): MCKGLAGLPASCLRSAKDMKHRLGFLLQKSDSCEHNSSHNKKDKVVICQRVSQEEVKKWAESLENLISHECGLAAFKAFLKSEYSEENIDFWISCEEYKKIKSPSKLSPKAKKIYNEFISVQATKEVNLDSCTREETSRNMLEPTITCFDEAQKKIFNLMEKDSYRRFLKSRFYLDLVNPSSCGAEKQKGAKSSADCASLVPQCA
SMILES,"activity change, negative = inhibition",Potency
O=C(CNCc1ccccn1)Nc1ccc([N+](=O)[O-])cc1C(=O)Nc1ccccc1F,inactive: -13.6%,
Cc1ccc(C)c(OCc2cc(C(=O)N3CCOCC3)no2)c1,,"inconclusive: 50.1 µM [inhibitor, single point]"
CCc1ccccc1NC(=O)Cn1nc(C(F)(F)F)c2c1CCCC2,inactive: 4.07%,
O=C(O)CCCNc1cc(N2CCN(C3CCCCC3)CC2)c2noc3c2c1C(=O)c1ccccc1-3,,"inconclusive: 31.6 µM [inhibitor, full curve, poor fit]"
CC(=O)Nc1ccccc1NC(=O)c1cc(C)cc(C)c1,,"inconclusive: 28.2 µM [inhibitor, full curve, poor fit]"
Cc1cc2ccccc2n1CCNC(=O)c1ccccc1,,"inconclusive: 79.4 µM [inhibitor, single point]"
CC(c1ccco1)N(C(=O)C12CC3CC(CC(C)(C3)C1)C2)c1ccccn1 (centres undefined),inactive: -22.6%,
COc1cccc(-c2cn3c(n2)sc2cc(C(=O)NCCc4ccc(OC)c(OC)c4)ccc23)c1,inactive: 6.79%,
CCS(=O)(=O)C1=NN2C(=N)/C(=C\c3ccc(OS(=O)(=O)c4ccccc4)cc3)C(=O)N=C2S1,,"inconclusive: 79.4 µM [inhibitor, partial curve, poor fit]"
Cc1ccc(NC(=O)c2cc([N+](=O)[O-])ccc2NCc2cccnc2)cc1Cl,,"inconclusive: 17.8 µM [inhibitor, full curve, poor fit]"
CC1(CCc2ccccc2)NC(=S)N(c2ccccc2)N1 (centres undefined),,"inconclusive: 44.7 µM [inhibitor, partial curve, poor fit]"
O=C(COc1ccc(Cl)cc1)Nc1ccc(C(=O)OCc2cc(=O)n3ccsc3n2)cc1,,"inconclusive: 44.7 µM [inhibitor, partial curve, poor fit]"
NC(=O)c1c(NC(=O)c2cnccn2)sc2c1CCCC2,,"inconclusive: 89.1 µM [inhibitor, single point]"
COc1ccc(-c2c3c(=O)n(C)c(=O)n(C)c3cn2C2CCCCC2)cc1,inactive: -12.6%,
Oc1ccc(NCc2ccccc2OCc2ccccc2F)cc1,,"inconclusive: 31.6 µM [inhibitor, full curve, poor fit]"
Cc1ccc(CN2CCSc3ccc(C(=O)NCC(C)c4ccccc4)cc32)cc1 (centres undefined),,"inconclusive: 79.4 µM [inhibitor, single point]"
CC(C)(C)N1C(=O)Cc2c1nc(N)c1c(N)nc(N3CCCCC3CO)c(C#N)c21 (centres undefined),,"inconclusive: 31.6 µM [inhibitor, full curve, poor fit]"
Cn1cc(/C=C/C(=O)c2ccccc2)c2ccccc21,,"inconclusive: 70.8 µM [inhibitor, partial curve, poor fit]"
O=C1NC(=O)C2(CCC(C(=O)O)C2)N1 (centres undefined),inactive: -15.1%,
Cc1cc(=O)[nH]c(SCc2cccc(Br)c2)n1,inactive: -27.5%,
O=C(NC1CCCCC1)N1CCNCC1,inactive: -27.8%,
COCCOC(=O)c1cc(C(=O)c2cc(F)ccc2O)coc1=N,inactive: -18.4%,

SMILES,"activity change, negative = inhibition",Potency
CCOC(=O)CCCCC(=O)c1[nH]c(=O)[nH]c1CSc1nc2ccccc2[nH]1,inactive: -6.89%,
O=C(Nc1ccc2c(c1)OCO2)c1ccc2c(c1)OCO2,inactive: -17.4%,
O=C(COc1ccc(-c2nnco2)cc1)Nc1c(F)cccc1F,inactive: -8.53%,
Cc1ccc2cc(C#N)c(NCCNC(=O)C3CCC3)nc2c1C,,"inconclusive: 89.1 µM [inhibitor, single point]"
Cc1ccc2nc(N3C(=O)CNC3=S)sc2c1,inactive: -8.1%,
CC(C)C[C@H](NC(=O)c1nc[nH]c1C(=O)NCC(=O)OCc1ccccc1)C(=O)OCc1ccccc1,inactive: 7.02%,
CC(=O)c1ccc(Nc2cc(C)nc3nc(Cc4ccc(Cl)cc4)nn23)cc1,,"inconclusive: 31.6 µM [inhibitor, full curve, poor fit]"
O=C(c1cc2ccccc2o1)N1CCOCC1,inactive: 7.93%,
CCc1ccc(CNc2ccc(O)cc2)cc1,,"inconclusive: 10 µM [inhibitor, full curve, poor fit]"
CCOC(=O)C1=C(COC(=O)CCOc2ccccc2C)NC(=O)NC1C (centres undefined),,"inconclusive: 89.1 µM [inhibitor, single point]"
COc1cccc(NC(=O)C2CC(=O)n3cnnc3S2)c1 (centres undefined),,"inconclusive: 79.4 µM [inhibitor, partial curve, poor fit]"
Cc1ccc(C(C2=C(O)CC(C)(C)CC2=O)C2C(=O)CC(C)(C)CC2=O)s1 (centres undefined),,"inconclusive: 50.1 µM [inhibitor, partial curve, poor fit]"
CCCCn1c2ccccc2c2nnc(SCC(=O)Nc3ccc(NC(C)=O)cc3)nc21,,"inconclusive: 70.8 µM [inhibitor, single point]"
Cc1ccc(-c2nn(-c3ccccc3)cc2/C=C2\SC(=S)N(CC(=O)O)C2=O)cc1,,"inconclusive: 56.2 µM [inhibitor, partial curve, poor fit]"
C#CCOCCOCCOCCNc1nc(N2CCN(C(=O)CCCCCCCCCCNC(=O)Cn3cc(CCCCCN)nn3)CC2)nc(N2CCN(C(=O)CCCCCCCCCCNC(=O)[C@H]([C@@H](C)CC)n3cc(CCCCN=C(N)N)nn3)CC2)n1,,"inconclusive: 35.5 µM [inhibitor, full curve, poor fit]"
CCOC(=O)CSc1c(-c2ccc(Cl)cc2)[nH]c2ccccc12,,"inconclusive: 28.2 µM [inhibitor, full curve, poor fit]"
Cc1noc(C)c1CSCC(=O)Nc1nc2c(F)cc(F)cc2s1,,"inconclusive: 89.1 µM [inhibitor, single point]"
Cc1ccc(OCC(=O)NNC(=O)c2ccoc2C)c(Br)c1,,"inconclusive: 89.1 µM [inhibitor, partial curve, poor fit]"
Oc1ccc(O)cc1,,"inconclusive: 23.8 µM [inhibitor, single point]"
O=C(Cc1ccc(Cl)cc1)c1c[nH]c(C(=O)NCc2cccnc2)c1,inactive: -12.6%,
COc1cc(/C=C2\SC(=S)N(CCCCC(=O)O)C2=O)ccc1OS(=O)(=O)c1ccc(C)cc1,,"inconclusive: 79.4 µM [inhibitor, single point]"
C/C(=N\N1C(=O)CSC1=S)c1ccc(Br)cc1,,"inconclusive: 100 µM [inhibitor, single point]"
